According to PubChem BioAssay AID652104 (National Center for Advancing Translational Sciences (NCATS), 2013):
Hit rate of the full screen: of about 410,000 compounds, about 7,200 (1.8%) were called active. This list was built around the results that the source calls inconclusive (neither active nor inactive); the mix of calls is not that of the screen. The call rests on the fitted dose curve; in most records, active means well fitted activation curve with a large enough effect; inconclusive means small, poorly fitted or top-dose-only effect, or another doubt; inactive means no such curve, though single readings can be large or run the other way. Potencies of inconclusive entries are doubtful fits and often do not repeat.

Experiment: qHTS of TDP-43 Inhibitors; further: nearly all actives have a fitted effect of over 50% in size; on growth rescue (activation): % of control where 0% means no effect
Conditions: TDP-43 expressing yeast growth rescue, BacTiter-Glo, 24 h; growth rescue (activation): at 46.1 µM (top of the series) unless noted
Outline: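 Luminescence from BacTiter-Glo reports growth of TDP-43-expressing yeast after 24 hr at 30 deg C with compound. Cells were raffinose-pregrown to mid-log, then seeded in galactose medium at OD600=0.02.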
Potency means the concentration at half of the fitted maximal effect; tags describe the fitted curve by direction and shape.

Potency, active:
O=C1CSC(=S)N1c1cccc(Br)c1 14.1 µM, COc1ccccc1NC(=O)Cn1nc(-c2ccc(C)cc2)c2c(c1=O)CCCC2 31.6 µM, CC(SC#N)C(=O)C12CC3CC(CC(C3)C1)C2 (stereo not drawn) 11.2 µM, Cc1cc(C)c(C(N)=O)c(SCC(=O)c2cc(C)n(-c3cc(C)on3)c2C)n1 35.5 µM, CCOc1cc(-c2ccc(OC(=O)c3ccc(C)cc3)c(OC)c2)cc(=O)c2c(C)oc(C)c12 17.8 µM, Cc1cccc(CSCc2ccc(C(=O)NCCc3ccccc3)o2)c1 35.5 µM, CSc1ccccc1NC(=O)COC(=O)/C=C/c1ccco1 5.01 µM, CCOC(=O)c1sc2nc3c(cc2c1N)COC(C)(CC)C3 (stereo not drawn) 11.2 µM, Fc1ccc(Cn2nnnc2C(c2ccc(Cl)cc2)N2CCSCC2)cc1 (stereo not drawn) 35.5 µM

Potency, inactive:
COc1cc(C(=O)N(C)CC2CCN(CCc3cccc(C(F)(F)F)c3)CC2)ccc1C, Cc1cccc(NC(=O)C2CCCN(S(=O)(=O)c3ccc(Br)s3)C2)c1 (stereo not drawn), CC(C)(C)OC(=O)N1CCC(c2c(C(=O)NCc3ccco3)cnn2-c2ccccc2Cl)CC1, O=C1CC(c2ccccc2)CC2=C1C=Nc1ccccc1N2 (stereo not drawn), CCC(C)n1c(SC(C)C#N)nc2ccccc2c1=O (stereo not drawn), CN1CCN(c2ccc(-c3cccc(NC(=O)COc4ccccc4)c3)nn2)CC1, Cc1ccc(N(Cc2ccccc2)C(=O)c2cccc(S(=O)(=O)N3CC(C)OC(C)C3)c2)cc1 (stereo not drawn), CC(=O)N1N=C(c2ccc(Br)cc2)CC1c1ccc(Br)cc1 (stereo not drawn), CCNC(=O)CSc1nnc(-c2cccc(S(=O)(=O)N(CC)CC)c2)n1CCc1ccccc1, N#Cc1c(-n2ncnc2-c2ccccc2C(F)(F)F)sc2c1CCCCC2, COc1cccc(-c2nn(C)c3sc(C(=O)NCc4ccco4)cc23)c1, Cc1ccc(NC(=O)Cc2ccc(Cl)cc2)nc1, Cc1ccc(C)c(Cn2c(=O)n(Cc3ccccc3)c(=O)c3c2c2cc(C)ccc2n3C)c1, COc1cc(NC(=O)CNS(=O)(=O)c2cccs2)cc(OC)c1OC, COc1cccc(-c2nc(-c3ccccn3)no2)c1OC, Cc1nn2c(=O)cc(COC(=O)COc3ccccc3C)nc2s1, O=C(O)C1=CC(c2ccc(Br)cc2)n2ncnc2N1 (stereo not drawn), Cc1sc2c(c1C)c(=O)n(Cc1ccccc1)c(=O)n2CC(=O)Nc1cccc(Cl)c1

Potency, inconclusive:
CCN(CC(=O)NCc1cccs1)c1nnnn1-c1ccccc1 35.5 µM [activator, partial curve], CC1(C)CC(=O)C(C=Nc2ccc(C(=O)c3ccccc3)cc2N=CC2=C(O)CC(C)(C)CC2=O)=C(O)C1 12.6 µM [activator, single point], CC(Sc1nc2ccccc2s1)C(=O)N(C)Cc1ccccc1 (stereo not drawn) 17.8 µM [activator, partial curve], CC(C)CNC(=O)C1(C)CCCCCN1C(=O)c1cc(C#N)cs1 (stereo not drawn) 20 µM [activator, partial curve], Cn1c(SCc2c(F)cccc2Cl)nnc1-c1cnccn1 14.1 µM [activator, partial curve], Cc1cccc(NC(=O)c2ccc(N3CCOCC3)c([N+](=O)[O-])c2)n1 20 µM [activator, partial curve], Cc1cn(C(=O)c2ccccc2)c(=S)n1-c1ccc(Cl)cc1 12.6 µM [activator, single point], O=C(COC(=O)c1ccc(OC(F)F)cc1)NCCC1=CCCCC1 35.5 µM [activator, partial curve], CSc1cc(-c2ccc(Cl)cc2)c(C(=O)NN)s1 22.4 µM [activator, single point], COc1cc2c[n+](C)c3c4ccccc4ccc3c2cc1OC 10 µM [activator, partial curve], Oc1ccccc1-c1nc2ccccc2nc1-c1ccccc1 31.6 µM [activator, single point], COc1cc(C(=S)N2CCC(C)CC2)ccc1O 10 µM [activator, partial curve], CC(=O)Nc1ccc(-c2ccnc3c2CC(C)(C(=O)Nc2ccccc2)O3)cc1 (stereo not drawn) 35.5 µM [activator, partial curve], Fc1ccc(-n2ncc3c(NCCC4=CCCCC4)ncnc32)cc1 0.794 µM [activator, full curve], Cc1cccc(C)c1NC(=O)Cn1c(=O)n(Cc2ccc3c(c2)OCO3)c(=O)c2oc3ccccc3c21 5.01 µM [activator, partial curve], COc1cccc(C2SCC(=O)N2c2ccc(Cl)cc2)c1OC (stereo not drawn) 35.5 µM [activator, single point], CCOC(=O)CNC(=O)C1(c2ccccc2)CCCC1 31.6 µM [activator, single point], CC(C)c1onc(C(=O)N2C(C)CCCC2C)c1[N+](=O)[O-] (stereo not drawn) 20 µM [activator, partial curve, poor fit], COc1ccc2c(c1)C(=O)CCC2c1ccccc1 (stereo not drawn) 8.91 µM [activator, single point], CCN1C(=O)C(CC(=O)Nc2ccc(OC)cc2)N(CCc2ccccc2F)C1=S (stereo not drawn) 15.8 µM [activator, single point], O=C1N=C(N2CCN(c3ccccc3)CC2)S/C1=C/c1cccs1 5.62 µM [activator, full curve], Cc1ccccc1NC(=O)CNc1ccccc1C(=O)NCc1ccco1 7.08 µM [activator, full curve], CC(=NO)c1cc(Br)c2cccc3c2c1CC3 22.4 µM [activator, single point], O=S1(=O)NC(c2ccccc2)CC(CC2CCCCC2)O1 (stereo not drawn) 35.5 µM [activator, single point], Cc1[nH]c2ccccc2c1SCCNC(=O)c1ccc(Br)o1 25.1 µM [activator, single point], COc1ccc(-c2coc3c(C(=O)Nc4cccc(NS(C)(=O)=O)c4)cccc23)c(C)c1 35.5 µM [activator, single point], Cc1cc(C(=O)Nc2ccccc2N2CCOCC2)c(C)o1 25.1 µM [activator, single point], CCOc1ccccc1N(CC)C(=O)c1cc2ccc3cccnc3c2[nH]1 35.5 µM [activator, single point], COc1ccc(OC)c(CNn2c(-c3cccc(C)c3)nc3ccccc3c2=O)c1 25.1 µM [activator, single point], CC(C)Cn1c(CN(Cc2ccccc2)Cc2ccccc2)nc2c1c(=O)n(C)c(=O)n2C 35.5 µM [activator, single point], CCCNC(=O)C1(C)CCN(Cc2ccc(OCc3ccccc3)cc2)C1 (stereo not drawn) 20 µM [activator, partial curve], COc1cccc(-c2nc3sc4c(c3c(=O)[nH]2)CCCCC4)c1 0.562 µM [activator, full curve], COc1ccccc1/C=C/C(=O)NCC(=O)N/N=C/c1cccnc1 2.24 µM [activator, partial curve], O=C(C(=O)N1CCN(c2ccccc2)CC1)c1cccc(Br)c1 7.94 µM [activator, full curve, poor fit], N#C/C(=N\Nc1cccc(Cl)c1)C(=O)c1ccccc1 5.01 µM [activator, partial curve], CCOC(=O)Cn1cnc2c(cnn2-c2ccc(C)c(C)c2)c1=O 20 µM [activator, partial curve], Cc1[nH]c(SCC(=O)Nc2cc(S(C)(=O)=O)ccc2Cl)nc1Cc1ccccc1 35.5 µM [activator, partial curve], CCOC(=O)c1cccc(NC(=O)Nc2cc(OC)ccc2OC)c1 7.94 µM [activator, partial curve], Oc1cccc(C(=S)N2CCC(Cc3ccccc3)CC2)c1 35.5 µM [activator, single point], COc1cc(Cl)c(C)cc1NC(=O)COC(=O)C1CC1C (stereo not drawn) 15.8 µM [activator, single point], CCOc1ccc(S(=O)(=O)NC2CCCCC2C)cc1 (stereo not drawn) 35.5 µM [activator, single point], c1ccc(-c2nc(NCc3ccco3)c3oc4ccccc4c3n2)cc1 35.5 µM [activator, single point], CC(=O)Nc1cccc(-c2csc(Nc3ccc(C)cn3)n2)c1 31.6 µM [activator, single point], Cc1ccc(OCCC(=O)Nc2ccc3c(c2)OCCCO3)cc1 11.2 µM [activator, partial curve], CC(=O)Nc1ccc(C(=O)COC(=O)C2CCCCC2)c(F)c1 31.6 µM [activator, single point]

Growth rescue (activation), inactive:
CCOc1cc(C(=O)Nc2ccc(-c3nc4ccccc4s3)cc2Cl)cc(OCC)c1OCC 21.1% [at 9.22 µM]
